Legend:
[1] = Titration by CD with cadmium; format: binding; conditions: aqueous medium at pH 6.5, read-out: Kd Cd (II)
Experimental: (§1) The CD spectra were recorded with a CD6 device (Jobin Yvon) equipped with a thermostated cuvette holder and computer-controlled using the CDMax program. The compounds were solubilized at a concentration of 5 μM in a 1 mM MES buffer at pH 6.5.The spectra were recorded at ambient temperature between 180 nm and 250 nm using a cuvette with a 0.1 mm optical path. Each spectrum represents the mean of 4 successive accumulations obtained with an integration time of 0.5 s and a step of 0.5 nm. The spectra were smoothed using the algorithm included in the CDMax program.

[2] = Titration by time-resolved laser fluorescence (TRLS) with europium; format: binding; conditions: 10 mM MES buffer pH 6.5, emission 618 nm, read-out: Kd Eu (III)
[3] = Compared affinities (Table III); format: binding; conditions: value in μM; read-out: Kd Ca^2+
[4] = Compared affinities in 1 mM phosphate medium pH 7 (Table III); format: binding; conditions: values given in μM, read-out: Kd Tb^3
[5] = Titration by CD (dichroic signal at 222 nm) with calcium ions; format: binding
Experimental: as §1
The absence of a secondary structure was confirmed by proton nuclear magnetic resonance (1H NMR) spectroscopy. When dissolved calcium is added, the CD spectrum takes on a form that is typical of a helicoidal conformation with minima at 206 and 222 nm. A CaM1c titration by CD was then carried out and the intensity of the dichroic signal at 222 nm was reported as a function of the concentration of calcium ions added (FIG. 4).

[6] = CD spectra with 8 equivalents of metal and ESI-MS, qualitative metal binding; conditions: 8 equivalents of metal, ESI-MS
[7] = CD spectra with 8 equivalents of metal, qualitative metal binding
Experimental: as §1
The corresponding peptide CaM-M1c was synthesized and its affinity with respect to various metals was tested by mass spectrometry, circular dichroism (CD) and time-resolved fluorescence (TRLS).

[8] = CD spectra with 8 equivalents of metal and ESI-MS, qualitative metal binding; conditions: 8 equivalents of metal, ESI-MS; remark: listed apart in the source
[9] = Compared affinities in 1 mM phosphate medium pH 7 (Table III); format: binding; conditions: read-out: Kd (μM) UO2^2+
[10] = TRLS titration of uranyl nitrate with peptide in water at pH 6.5; conditions: read-out: Kd U (VI), species titrated UO2(OH)+, titration by TRLS, 2 μM uranyl nitrate in water
[11] = CD spectra with 8 equivalents of metal and ESI-MS, qualitative metal binding; conditions: 8 equivalents of metal, ESI-MS; remark: listed apart in the source
[12] = as above; conditions: 8 equivalents of metal, ESI-MS; remark: listed apart in the source
[13] = as above; conditions: 8 equivalents of metal, ESI-MS; remark: listed apart in the source
[14] = as above; conditions: 8 equivalents of metal, ESI-MS; remark: listed apart in the source
[15] = CD spectra with 8 equivalents of metal, qualitative metal binding; remark: listed apart in the source
[16] = CD spectra with 8 equivalents of metal and ESI-MS, qualitative metal binding; conditions: 8 equivalents of metal, ESI-MS; remark: listed apart in the source
[17] = Titration by ESI-MS with calcium; format: binding; conditions: read-out: dissociation constant Kd, calcium
Experimental: The positive-detection-mode electrospray mass spectra were recorded with a Q-TOF II device (Micromass). The sample to be analyzed was introduced into the source via a syringe pump (Harvard Apparatus). Nitrogen was used as drying and collision gas with a source heated to 80° C. The cone voltage was 30 volts, and a high voltage of 3500 kV was applied to the capillary. The sample solution flow rate was fixed at 5 μL.min^−1. The spectra represent the mean of 40 scans recorded between 400 and 3000 m/z at a scan rate of 6 s/scan.

Sequence: EQIAEFKEAFALCDKDGDGYITTKELGTCMRSL [CaM-M1c]
- Kd [1]: 8 ± 4 µM
- Kd [2]: 0.6 µM
- Kd [3]: 30 µM
- Kd [4]: 4 µM
- Kd ([5]; CD titration at 222 nm, 10 mM MES pH 6.5, read-out: dissociation constant Kd, calcium): 30 µM
- Kd ([5]; aqueous medium at pH 6.5, titration by CD and by ESI/MS, read-out: Kd Ca (II)): 30 ± 1 µM
- affinity / interaction with Ba [6]: No interaction
- affinity / interaction with cobalt [7]: weak affinity
- affinity / interaction with Mg [8]: No interaction
- Kd [9]: 6.8 µM
- Kd [10]: 4.7 ± 0.6 µM
- affinity / interaction with Sr [11]: No interaction
- affinity / interaction with uranium (uranyl) [12]: good affinity
- affinity / interaction with terbium [13]: good affinity
- affinity / interaction with calcium [14]: good affinity
- affinity / interaction with cadmium [15]: good affinity
- affinity / interaction with europium [16]: good affinity
- Kd [17]: 30 µM

Reference: US9321849B2, “Uranium-chelating peptides and uses thereof” (priority 2003, dated 2016)
